Results reported in PubChem BioAssay AID652104 (National Center for Advancing Translational Sciences (NCATS), 2013).
Screen size: about 410,000 compounds; about 7,200 (1.8%) were called active. The inconclusive results got no clear call from the source; some entries with a clear call stand among them for comparison. The call rests on the fitted dose curve; in most records, active means well fitted activation curve with a large enough effect; inconclusive means small, poorly fitted or top-dose-only effect, or another doubt; inactive means no such curve, though single readings can be large or run the other way. No potency is given beside an inconclusive call; the fits are too rough.

Experiment: qHTS of TDP-43 Inhibitors; further: nearly all actives have a fitted effect of over 50% in size; on growth rescue (activation): % of control where 0% means no effect
Details: TDP-43 expressing yeast growth rescue, BacTiter-Glo, 24 h; growth rescue (activation): at 46.1 µM (top of the series) unless noted
Summary of the method: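 Yeast cells expressing TDP-43 under galactose induction are exposed to compounds for 24 hr at 30 deg C. BacTiter-Glo luminescence measures growth, so protective compounds score as activators.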
Potency means the concentration at half of the fitted maximal effect; tags describe the fitted curve by direction and shape.

| SMILES | Potency | growth rescue (activation) |
| --- | --- | --- |
| Cc1cccc(Nc2nc(-c3ccccc3)nc3ccccc23)c1 | active: 25.1 µM |  |
| O=C(CN1CCC(Cc2ccccc2)CC1)Nc1ccc2c(c1)OCCO2 |  | inactive: 3.3% |
| Cc1onc(-c2c(F)cccc2Cl)c1C(=O)NCc1ccccn1 | inconclusive [activator, full curve, poor fit] |  |
| Cc1ccc(-n2c(=O)c3c(C)c(C(=O)N(C)C)sc3n(Cc3ccccc3C)c2=O)cc1C |  | inactive: -0.958% |
| COc1ccc(-c2cc(C(=O)NCCN3CCOCC3)c3ccccc3n2)cc1 |  | inactive: -10% |
| C[C@H](N)c1nnc(SCc2ccc(Cl)cc2Cl)o1 |  | inactive: 17% |
| COc1ccccc1C1=CC(=O)C[C@H](c2ccc(F)cc2)C1 | active: 15.8 µM |  |
| CC1=NOC(=O)/C1=C\c1ccccc1 |  | inconclusive: 41% [activator] |
| O=C(CCN1C(=O)c2ccc(Br)cc2C1=O)NC1CCCCC1 | inconclusive [activator, partial curve] |  |
| COc1cc(C)nn1-c1ccc(Cl)cc1 | inconclusive [activator, single point] |  |
| O=C(/C=C/c1cccc2ccccc12)c1ccncc1 | inconclusive [activator, single point] |  |
| COc1ccc2c(C)c(Cc3ccccc3)c(=O)oc2c1OC | inconclusive [activator, single point] |  |
| CN(C1=C(NC(=O)c2ccccc2)C(=O)c2ccccc2C1=O)C1CCS(=O)(=O)C1 (stereo not drawn) |  | inactive: -0.36% |
| O=C(Nc1ccccc1Cl)c1ccc(-c2ccccn2)s1 | active: 11.2 µM |  |
| COC(=O)c1sccc1NC(=S)N(C)C1CCCCC1 | inconclusive [activator, partial curve] |  |
| COc1cc(C=C2CN(C)C(=O)C2=O)ccc1O |  | inactive: -10.7% |
| CCOc1ccc(NC(=O)CC2C(=O)N(c3ccc(OC)cc3)C(=O)N2CCC2=CCCCC2)cc1 (stereo not drawn) |  | inactive: 7.94% |
| N=P(N1CCOCC1)(N1CCOCC1)C12CC3CC(CC(C3)C1)C2 |  | inactive: -4.6% |
| Cc1cc(C(=O)OCC(=O)NCc2ccco2)c(C)n1-c1ccc(F)cc1 | inconclusive [activator, single point] |  |
| Cc1nc(-c2ccc(Cl)cc2)sc1C1(C)CC(c2cccnc2)=NO1 (stereo not drawn) | inconclusive [activator, single point] |  |
| COc1cc(/C=C(/C#N)c2nc3ccccc3[nH]2)ccc1OCC(=O)Nc1ccccc1C(C)C | inconclusive [activator, single point] |  |
| FC(F)(F)c1cccc(N2CCN(c3nnnn3-c3ccccc3)CC2)c1 | inconclusive [activator, single point] |  |
| COc1ccccc1-c1nn(CCC(=O)Nc2ccc(C)cc2)c2nc(C)cc(C)c12 | active: 35.5 µM |  |
| Cc1ccccc1NC(=O)CSc1ccc(-c2ccccn2)nn1 | inconclusive [activator, partial curve] |  |

| SMILES | Potency | growth rescue (activation) |
| --- | --- | --- |
| O=C(COC(=O)c1c2c(nc3ccccc13)/C(=C\c1cccs1)CCC2)Nc1ccccc1 | inconclusive [activator, partial curve] |  |
| COc1ccc(S(=O)(=O)Nc2cccc(-c3ccc(N4CCCC4)nn3)c2)cc1F |  | inactive: 9.92% |
| C=C(C)C1Cc2cc3ccc(=O)oc3cc2O1 (stereo not drawn) | inconclusive [activator, partial curve] |  |
| Oc1ccccc1C1=NC(c2ccccc2)NC(c2ccccc2)C1 (stereo not drawn) | inconclusive [activator, partial curve] |  |
| O=C(NN=C(c1ccccc1)c1ccccn1)c1ccccc1 |  | inactive: 14.6% |
| COC(=O)c1ccc(CSc2ccc3nnc(-c4ccccc4)n3n2)o1 | inconclusive [activator, partial curve] |  |
| CCCCc1nc(C(N)=O)c2[nH]c(=O)n(-c3ccc(OC)cc3OC)c2n1 | inconclusive [activator, single point] |  |
| Cc1ccc(-c2cc(C(F)(F)F)n3ncc(C(=O)NCc4ccco4)c3n2)cc1 | inconclusive [activator, full curve, poor fit] |  |
| COc1ccc(CCNc2oc(COc3ccccc3)nc2C#N)cc1 | inconclusive [activator, partial curve] |  |
| CCN(C(=O)COC(=O)CSc1cc(C)c2ccccc2n1)c1ccccc1 | inconclusive [activator, partial curve] |  |
| O=C(COC(=O)COc1ccc(Cl)cc1Cl)NC1CCCCCC1 |  | inactive: 6.7% |
| Cc1cc(C)cc(NC(=O)C(C)N2Cc3ccccc3C2=O)c1 (stereo not drawn) |  | inactive: 16.8% |
| CC(C)c1ccc(CNc2ccc([N+](=O)[O-])cn2)cc1 | inconclusive [activator, single point] |  |
| CC(C)CCN1C(=O)c2ccccc2C1c1nnnn1Cc1ccccc1 (stereo not drawn) |  | inconclusive: 31.5% [activator] |
| O=C(O)C(S)C(S)C(=O)O (stereo not drawn) | inconclusive [activator, partial curve] |  |
| Cc1ccc(-n2c(=O)c3c(cnn3C)n(CC(=O)Nc3cccc(Cl)c3)c2=O)cc1 |  | inactive: 16.6% |
| CN(C)/C=C/C(=O)c1ccccc1OCc1cnc(Cl)s1 | inconclusive [activator, single point] |  |
| Cc1noc(Cn2c(=O)c3ccccc3n(CC(=O)Nc3cc(Cl)ccc3C)c2=O)n1 |  | inactive: 0% |
| Cc1ccc(S(=O)(=O)N(C)CC(=O)O/N=C(\N)c2ccc([N+](=O)[O-])cc2)cc1 | inconclusive [activator, single point] |  |
| O=C(c1cnccn1)N1CCc2c([nH]c3ccccc23)C1c1cccc(Cl)c1 (stereo not drawn) | active: 17.8 µM |  |
| COc1ccc(C(=O)/C=C/Nc2ccc([N+](=O)[O-])cc2C)c(OC)c1 |  | inactive: -15.7% |
| CC(C)(C)C(=O)C1=C(O)C(=O)N(Cc2ccccc2)C1c1ccccc1F (stereo not drawn) | inconclusive [activator, single point] |  |
| Cc1cc(C)cc(N2C(=O)CC(Sc3ccccc3C(=O)O)C2=O)c1 (stereo not drawn) | active: 22.4 µM |  |
| Cc1ccc(S(=O)(=O)Nc2ccc(Nc3ccccc3)cc2)cc1 | inconclusive [activator, single point] |  |
